Measured values as given in PubChem BioAssay AID485313 (National Center for Advancing Translational Sciences (NCATS), 2010).
The whole screen tested about 320,000 compounds, of which about 7,600 (2.4%) were called active. Inconclusive means that the source gave no clear call. Such entries were picked first, then a sample of the others. Calls come from the whole dose curve; as a rule, active = well fitted activation curve with a large enough effect; inconclusive = small, poorly fitted or top-dose-only effect; inactive = no such curve, though single readings can be large or run the other way. Potencies of inconclusive entries are left out as doubtful fits.

Test: qHTS Assay for NPC1 Promoter Activators; note: nearly all actives have a fitted effect of over 60% in size;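 for activation: reporter is driven by a mutant NPC1 promoter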
Details: Huh7 NPC1 promoter luciferase reporter, 24 h; series mostly up to 9.22 µM
Outline: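 Stable NPC1-promoter luciferase Huh7 line; cpd (DMSO) 24 h, 37 °C, 5% CO2; Amplite luciferase reagent 10 min RT; luminescence readout. qHTS format.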
Potency is the fitted concentration of half-maximal effect; tags give direction and shape of the fitted curve.

Row | Compound | Potency
1 | O=C(NC1CCCCC1)C(=O)c1c[nH]c2ccccc12 | inconclusive [activator, partial curve]
2 | COc1cccc(Nc2nc(CN3CCOCC3)nc3sc4c(c23)CCCC4)c1 | inactive
3 | Cc1ccc(OCc2ccc(C(=O)O)o2)cc1C | inconclusive [activator, partial curve]
4 | Cc1c(C(=O)N2CCN(c3ccccc3)CC2)sc2ncnc(N3CCN(c4ccccn4)CC3)c12 | inactive
5 | Cc1ccc2[nH]c(C(=O)N3CCCCC3)cc2c1 | inconclusive [activator, single point]
6 | O=C(Nc1cccc(NC(=O)c2cccc(F)c2)n1)c1cccc(F)c1 | inactive
7 | CC(C)c1nnc(NC(=O)COc2ccccc2[N+](=O)[O-])s1 | inconclusive [activator, single point]
8 | Cc1cc(-c2ccccc2)nc(N/N=C/c2ccco2)n1 | inconclusive [activator, partial curve]
9 | CCOC(=O)c1sc(-c2ccc(F)cc2)cc1N | inconclusive [activator, partial curve]
10 | COc1ccc2c(c1OC)C(=O)N(c1ccc(OCc3ccccc3)cc1)C2=O | inactive
11 | COc1ccc(NC(=O)c2[nH]c(C)c(C(C)=O)c2C)cc1 | inconclusive [activator, partial curve]
12 | CCOc1ccc(CN(C(=O)c2cc3ccccc3oc2=O)C2CCS(=O)(=O)C2)cc1 (configuration not stated) | inconclusive [activator, partial curve]
13 | O=C(N=C1SCC(=O)N1c1ccccc1Cl)c1ccccc1 | inconclusive [activator, partial curve]
14 | O=C(NCCc1c[nH]c2ccccc12)c1cc(Cl)c2c(c1)OCO2 | active: 2.51 µM
15 | O=[N+]([O-])c1ccc(NNS(=O)(=O)c2cc(Cl)ccc2Cl)nc1 | inactive
16 | c1ccn2cc(CSC3=NCCS3)nc2c1 | inconclusive [activator, partial curve]
17 | CCS(=O)(=O)c1ccc2c(c1)N(S(=O)(=O)c1ccc(Cl)cc1)CC(C(=O)O)O2 (configuration not stated) | inactive
18 | COc1cccc(NC(=O)CN2C(=O)CSc3ccc(S(=O)(=O)N4CCC(C)CC4)cc32)c1 | inconclusive [activator, single point]
19 | CCOc1cccc(C(=O)NC2=NCCS2)c1 | active: 0.631 µM
20 | O=C(NC1CCCCCC1)c1cccc(N2CCCC2=O)c1 | active: 3.55 µM
21 | COc1cccc(NC(=O)c2ccc3nsnc3c2)c1 | inconclusive [activator, single point]
22 | NC(=O)c1ccc(/C=N/O)[n+](Cc2ccccc2)c1 | inconclusive [activator, single point]
23 | Cc1cccc(NC(=O)Nc2cccc(C#N)c2)n1 | inconclusive [activator, single point]
24 | O=C1c2ccccc2C(=O)C1(CO)c1ccc(OC(F)F)cc1 | inconclusive [activator, full curve]
25 | CC#CCCCC(=O)Nc1ccccc1C(=O)O | inconclusive [activator, single point]
26 | Cn1/c(=N/N=C/c2ccc(N3CCOCC3)cc2)sc2ccccc21 | inconclusive [activator, partial curve]

Row | Compound | Potency
27 | CC(=O)Nc1cccc(C(=O)/C=C/c2ccco2)c1 | inconclusive [activator, single point]
28 | O=C(Nc1cc2c(cc1Br)OCCCO2)c1ccccc1 | active: 3.55 µM
29 | O=C(NC1CCCCC1)C(=S)NCc1ccccc1 | inconclusive [activator, single point]
30 | CCc1oc2ccccc2c1C(=O)CCN1CCCCC1 | inactive
31 | O=C(NCCCc1ccccc1)c1ccc([N+](=O)[O-])cc1Cl | inconclusive [activator, partial curve]
32 | COc1cc2cc(C(=O)N(C)C3CCS(=O)(=O)C3)[nH]c2cc1OC (configuration not stated) | inactive
33 | CCCCOc1ccc(/C=c2\sc3ncnn3c2=O)cc1 | inactive
34 | O=C(CCl)Oc1ccc2occ(C(=O)c3cccs3)c2c1 | inactive
35 | Cc1ccc([N+](=O)[O-])cc1NC(=S)NC(=O)CC(C)(C)C | inactive
36 | Clc1ccc(-c2cc(CN3CCOCC3)no2)cc1 | active: 1.58 µM
37 | Cc1cc(C)cc(NS(=O)(=O)c2ccc(F)cc2)c1 | inactive
38 | O=C(/C=C/c1ccnc2ccccc12)c1cccs1 | active: 0.562 µM
39 | CCCCN=C(C)c1c(O)c2ccccc2oc1=O | inconclusive [activator, partial curve]
40 | CC(C)(C)NC(=O)COC(=O)c1ccccc1OCC(=O)Nc1ccc(Br)cc1 | inconclusive [activator, single point]
41 | N/C(=N\OC(=O)c1ccc2ccccc2c1)c1cccc([N+](=O)[O-])c1 | inactive
42 | COc1ccc(NC(=O)c2nnn(CC(=O)Nc3ccc4c(c3)OCO4)c2N)cc1OC | inactive
43 | CCOC(=O)c1cnc(SCC(=O)c2ccccc2)nc1N | active: 3.16 µM
44 | O=C(Nc1ccn(Cc2ccccc2F)n1)c1ccc(COc2cccc(Br)c2)cc1 | active: 1.58 µM
45 | O=C(/C=C/c1cc([N+](=O)[O-])ccc1OC(F)F)NCc1ccc(Cl)cc1 | inactive
46 | CCOC(=O)C1(Cc2ccccc2C)CCCN(C(=O)c2ccc(COC)o2)C1 (configuration not stated) | inconclusive [activator, partial curve]
47 | O=C(O)CCCCCCC1C(=O)NC(=O)N1CCC(O)C1CCCCC1 (configuration not stated) | inactive
48 | Cc1ccc(CNC(=O)c2ccc(Cn3cc(-c4ccc(C)cc4)nc3-c3ccncc3)cc2)cc1 | inconclusive [activator, partial curve]
49 | CSc1ccc(/C=C/C(=O)Nc2ccccc2)cc1 | active: 0.316 µM
50 | Cc1ccccc1Nc1nnc(SCC2CCCCO2)s1 (configuration not stated) | active: 0.708 µM
51 | c1ccc(-c2nc(-c3ccccn3)no2)cc1 | active: 0.112 µM
52 | O=C(Nc1nc2cc3c(cc2s1)OCCO3)c1cccs1 | inconclusive [activator, single point]
